Measurements published in PubChem BioAssay (NCATS).
Inconclusive means that the source gave no clear call. Such entries were picked first, then a sample of the others. Potencies of inconclusive entries are doubtful fits and often do not repeat. Active and inactive are the calls of the source. Calls come from the whole dose curve; as a rule, active = well fitted inhibition curve with a large enough effect; inconclusive = small, poorly fitted or top-dose-only effect; inactive = flat fitted curve, though single readings scatter. Residues, ends and D or L forms follow the SMILES beside them.

Experiment: BET inhibitor-based combinations targeting novel dependencies in MECOM-rearranged (r) AML: AML-194 cell line (AID 2202237; note: nearly all actives have a fitted effect of over 40% in size;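 for viability (% of control): plate controls were vehicle wells for no effect and wells without cells for full effect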)
Details: AML-194 (MECOM-r AML) viability, CellTiter-Glo, 48 h; series mostly up to 46 µM; viability (% of control): at the top concentration
Outline: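 A 48 hr incubation preceded viability reading by CellTiter-Glo, with 15 min room-temperature development. Dose series had 11 points; normalization used DMSO and empty wells; AUC was computed and mean-centered per line as Z-AUC.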
Potency is the fitted concentration of half-maximal effect; tags give direction and shape of the fitted curve.

Q: For CCOc1cc(N2CCC(O)CC2)ccc1Nc1ncc2c(n1)N(C)c1ccccc1C(=O)N2C, which Potency is on record?
A: The Potency was inconclusive: 14.8 µM [inhibitor, partial curve].

Q: With CC(C)(CO)[C@@H](O)C(=O)NCCC(=O)O as the compound, how does the “viability (% of control)” value read?
A: The value was inactive: 106%.

Q: Which Potency does the source give for c1cncc(CN2CCC(n3ncc4c(N5CCOCC5)nc(-c5ccc6[nH]ccc6c5)nc43)CC2)c1 here?
A: The Potency was inconclusive: 1.48 µM [inhibitor, full curve].

Q: For CC(C)C[C@@H](C(=O)N[C@H](C(=O)OC1CCCC1)c1ccccc1)[C@H](O)C(=O)NO, which Potency is on record?
A: Its Potency is inconclusive: 20.9 µM [inhibitor, partial curve].

Q: With COc1ccc([C@@H](O)[C@@H](C)Oc2ccc([C@H]3O[C@H](c4ccc(O[C@H](C)[C@H](O)c5ccc(OC)c(OC)c5)c(OC)c4)[C@H](C)[C@H]3C)cc2OC)cc1OC as the compound, how does the Potency read?
A: The Potency was inconclusive: 18.6 µM [inhibitor, partial curve].

Q: With Cc1ccc(-c2nc(N)nc3c2nnn3Cc2cccc(CO[C@H]3CCOC3)n2)o1 as the compound, how does the “viability (% of control)” value read?
A: Its value is inactive: 111%.

Q: Which “viability (% of control)” value does the source give for COC(=O)[C@H](Cc1ccccc1)NC(=O)[C@@H](N)CC(=O)O (H-Asp-Phe-OMe) here?
A: Its value is inactive: 111%.

Q: With O=C1CCC(N2C(=O)c3ccccc3C2=O)C(=O)N1 (stereo not drawn) as the compound, how does the “viability (% of control)” value read?
A: The value was inactive: 120%.

Q: Which “viability (% of control)” value does the source give for CCCc1cc(=O)[nH]c(=S)[nH]1 here?
A: Its value is inactive: 111%.

Q: For Nc1n[n+]([O-])c2ccccc2[n+]1[O-], which Potency is on record?
A: The Potency was inconclusive: 29.5 µM [inhibitor, single point].

Q: Which Potency does the source give for CO[C@@H](C)Cn1c(=O)n(C)c2cnc3ccc(-c4cncc(C(C)(C)O)c4)cc3c21 here?
A: Its Potency is inconclusive: 0.296 µM [inhibitor, full curve].

Q: For CN(CCOc1ccc(C[C@H](Nc2ccccc2C(=O)c2ccccc2)C(=O)O)cc1)c1ccccn1, which Potency is on record?
A: The Potency was “inactive”.

Q: Which Potency does the source give for O=C(CCCCCCC(=O)N/N=C/c1ccc(N(c2ccccc2)c2ccccc2)cc1)NO here?
A: Its Potency is active: 7.42 µM.

Q: Which Potency does the source give for O=C(Nc1cnn2ccc(N3CCC[C@@H]3c3cc(F)ccc3F)nc12)N1CC[C@H](O)C1 here?
A: The Potency was inconclusive: 0.118 µM [inhibitor, full curve].

Q: For C=CC(=O)Nc1cccc(Oc2nc(Nc3ccc(N4CCN(C)CC4)cc3)nc3ccsc23)c1, which Potency is on record?
A: The Potency was active: 14.8 µM.

Q: With O=C(NOCC1CC1)c1ccc(F)c(F)c1Nc1ccc(I)cc1Cl as the compound, how does the Potency read?
A: Its Potency is inconclusive: 8.33 µM [inhibitor, partial curve].

Q: For CC12CC3CC(C)(C1)CC(N)(C3)C2, which “viability (% of control)” value is on record?
A: Its value is inactive: 100%.

Q: With Cn1cc(-c2[nH]c3cc(NC(=O)[C@H](N)C4CCCCC4)cc4c3c2C=NNC4=O)cn1 as the compound, how does the Potency read?
A: Its Potency is inconclusive: 4.17 µM [inhibitor, full curve].

Q: Which “viability (% of control)” value does the source give for COC1CCC(C(=O)c2ccc3nc4c(cc3c2)CCCO4)CC1 (stereo not drawn) here?
A: Its value is inactive: 101%.

Q: With COc1cc(C)c(Sc2cnc(NC(=O)c3ccc(CNC(C)C(C)(C)C)cc3)s2)cc1C(=O)N1CCN(C(C)=O)CC1 (stereo not drawn) as the compound, how does the Potency read?
A: The Potency was active: 11.8 µM.

Q: For C[C@@H](Oc1ccc2[nH]nc(/C=C/c3cnn(CCO)c3)c2c1)c1c(Cl)cncc1Cl, which Potency is on record?
A: Its Potency is active: 0.934 µM.

Q: For CCC(=O)O[C@]1(C(=O)SCF)[C@H](C)C[C@H]2[C@@H]3C[C@H](F)C4=CC(=O)C=C[C@]4(C)[C@@]3(F)[C@@H](O)C[C@@]21C, which Potency is on record?
A: The Potency was inconclusive: 0.0037 µM [inhibitor, full curve, poor fit].

Q: For COc1ccnc(CS(=O)c2nc3ccc(OC(F)F)cc3[nH]2)c1OC (stereo not drawn), which “viability (% of control)” value is on record?
A: The value was inactive: 104%.
